# Test results taken from publication PMC12040169 (PLOS Biology, 2025).
# This is one part of the list.
# System: T1, C. trachomatis L2/434/Bu expressing GFP (CTL2-GFP)
# T1 construct: L2/434/Bu GFP intracellular growth in HeLa cells
# Design: species or system HeLa; C. trachomatis total inclusion area by high-content imaging, normalised to DMSO
# Details: total inclusion area; 28.5 h, 10 µM; inhibitor
# Outline: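 Post-fluorescence-read fixation, DNA staining with Hoechst and high-content imaging; GFP inclusion area and number per well, and nuclei counts, used as proxies for bacterial growth and host viability.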
row,Structure (SMILES),% of control remaining
1,Cc1cc(-c2nnc(SCC(=O)N3CCCCC3)o2)no1 [CBK268731],107.442
2,O=C(CSc1nc2ccccc2c2nc3ccccc3n12)Nc1cccc(Cl)c1 [CBK267872],112.919
3,C=CCn1c(Cc2csc(NC(=O)c3cccc([N+](=O)[O-])c3)n2)n[nH]c1=S [CBK295339],105.739
4,Cc1cccc(-c2ncc(NC(=O)C3CC3)nc2-c2cccnc2)c1 [CBK037134],74.3256
5,CC1(C)OC(=O)C(=CNC(CCC(=O)O)C(=O)O)C(=O)O1 (stereo not drawn) [CBK263510],100.761
6,COC(=O)[C@H]1CN(C(=O)c2cccs2)C[C@@H]1c1ccccc1F [CBK283775],87.1011
7,COc1ccc(C(=O)O)cc1N1C(=O)CC(c2c(C)nn(-c3ccccc3)c2N)C1=O (stereo not drawn) [CBK291120],97.6433
8,CC(C)S(=O)(=O)N1CCC(n2c(=O)[nH]c3ccccc32)CC1 [CBK149693],96.3814
9,CCC(CC)C(=O)Nc1ccc([C@@H](O)[C@H]2COCC(=O)N2CC)cc1 [CBK289684],105.044
10,Cc1cc(C(=O)N(C)C2CCCCC2)no1 [CBK057375],83.8785
11,CC(=O)N1C[C@H](O)C[C@H]1C(=O)N1CC[C@H]2NC(=O)[C@H](Cc3ccccc3)NC(=O)C3(C/C=C/C[C@H]2C1)CCOCC3 [CBK292204],97.8435
12,COc1ccc(CCOc2nccnc2-c2ccsc2)cc1 [CBK106775],16.067
13,O=C(Cc1ccc(F)cc1F)Nc1ccc2cc[nH]c2c1 [CBK160044],145.229
14,CC(C)(C)c1ccc(S(=O)(=O)N/N=C\c2ccc(Cl)cc2Cl)cc1 [CBK264759],103.669
15,CCOc1ccc2nc(NS(=O)(=O)c3cc(C(=O)O)c(Cl)cc3Cl)sc2c1 [CBK299789],114.947
16,CCOC(=O)c1c(NC(=O)Cn2nc(C(F)(F)F)c(Cl)c2C)sc2c1CCCC2 [CBK263019],98.4892
17,O=C(c1cc(CO)ccn1)N(Cc1ccccn1)CC1CCCO1 (stereo not drawn) [CBK306820],72.7319
18,S=C1NC2c3ccccc3OC3(CCCCC23)N1 (stereo not drawn) [CBK288506],31.9616
19,Cc1ccc(-n2c(SCC(=O)N3CCC(C(=O)O)CC3)nc3ccccc3c2=O)cc1C [CBK297540],91.5702
20,N#CCCCN1CCC2(CC1)CN(CC(N)=O)c1ccccc12 [CBK137024],83.6123
21,COc1ccccc1Nc1nc(N)nc(CSc2nccn2C)n1 [CBK266710],108.802
22,CC(=O)Nc1c(O)nc(SCC(=O)Nc2ccc(C(C)=O)cc2)[nH]c1=O [CBK268527],99.3328
23,COc1ccc(C(C)C)cc1-c1cncc(NC(C)CCCC(C)(C)O)n1 (stereo not drawn) [CBK065521],92.1483
24,CC(=O)NCCNC(=O)c1cc(Br)cnc1NCCOc1ccccc1 [CBK076232],67.1113
25,Fc1ccc(C2CCCN(CCCOc3cccc(F)c3)C2)cc1 (stereo not drawn) [CBK016228B],9.534
26,O=C(CSc1nc2ccccc2[nH]1)c1ccccc1 [CBK261298],101.298

row,Structure (SMILES),% of control remaining
1,Cn1nc(NC(=O)Cc2ccsc2)c2c(N3CCOCC3)cccc21 [CBK307023],46.0449
2,O=C(N/N=C\c1ccccc1O)c1nc([N+](=O)[O-])n[nH]1 [CBK261475],95.2328
3,Cc1ccc(S(=O)(=O)NCC(=O)N2CCOCC2)cc1[N+](=O)[O-] [CBK050597],99.4828
4,Cc1cc(-c2cn(C)nc2C2CCCCN2C(=O)C2CCC2)on1 (stereo not drawn) [CBK283403],102.649
5,CCn1cc(CN2C3CCC2CC(O)(c2ccccc2F)C3)cn1 (stereo not drawn) [CBK282662],116.774
6,Fc1ccc(Oc2nccnc2N2CCN(Cc3ccc(Cl)cc3)CC2)cc1 [CBK083010T],125.178
7,CCC(=O)N1CC[C@H]2NC(=O)c3ccccc3OCC/C=C/C[C@H]2C1 [CBK291999],125.844
8,COc1cc(/C=C(/C#N)c2ccc(C(=O)O)cc2)ccc1OCc1cccc([N+](=O)[O-])c1 [CBK269057],87.6414
9,O=C(CN1CCC(NC(=O)c2ccccc2)CC1)Nc1ccccc1 [CBK074716],112.746
10,CCCc1cc(C(=O)NC(C)(C)CN2CCCC(C)C2)[nH]n1 (stereo not drawn) [CBK282467],92.8189
11,COc1ccccc1/C=C/c1nn2c(C(C)C)nnc2s1 [CBK269501],107.913
12,O=C1c2cccc3cccc(c23)C(=O)N1CCN1CCN(CC(O)COc2ccc(Cl)cc2Cl)CC1 (stereo not drawn) [CBK264881],107.22
13,Cc1nn2c(C3CCCNC3)ccnc2c1-c1ccc(F)cc1 (stereo not drawn) [CBK284139],75.9891
14,CN1CCN(C(=O)c2ccsc2NS(=O)(=O)Cc2ccccc2)CC1 [CBK042266],83.6013
15,O=C(CSc1n[nH]c(=O)[nH]c1=O)N/N=C/c1cccs1 [CBK263508],86.8156
16,O=C(CN1CCN(S(=O)(=O)N2CCCCC2)CC1)Nc1ccc(Br)cc1 [CBK269515],89.2403
17,CN(Cc1ccsc1)C(=O)c1cccc(S(=O)(=O)NCC2CCCO2)c1 (stereo not drawn) [CBK304232],43.3852
18,CCCC(=O)N1CCC(c2nnc(-c3ccsc3)o2)CC1 [CBK283377],97.1983
19,COc1ccc(C(=O)N[C@H]2C[C@H]3C(=O)NC[C@@H](CCC(=O)N4CCN(C)CC4)N3C2)cc1 [CBK289016],121.49
20,Cc1ccc(C(=O)N2CCN(S(=O)(=O)c3sc(C(=O)O)c(C)c3C(=O)O)CC2)cc1 [CBK297120],48.9487
21,CC1CCCCN1Cc1nc2c(c(=O)n(C)c(=O)n2C)n1Cc1ccccc1 (stereo not drawn) [CBK269203],56.2248
22,CC(C)(C)c1cc(NC(=O)CSc2ccc(S(=O)(=O)N3CCCC3)cn2)n(-c2ccccc2)n1 [CBK297099],90.6726
23,Cc1ccccc1Cc1cccc(C2CCN(CC(=O)Nc3nccs3)CC2)n1 [CBK286089],81.3615
24,Cc1oc(-c2ccccc2)cc1C(=O)Nc1ccc(N2CCNCC2)nc1 [CBK034127T],63.734
25,Cc1ccc(Cn2nc(C)c(C(=O)OCc3cc(=O)n4ccccc4n3)c2Cl)cc1 [CBK297550],54.9111
26,Cc1cc(C)n(-c2cc(N3CCN(S(=O)(=O)Cc4ccccc4)CC3)ccc2[N+](=O)[O-])n1 [CBK264407],94.0444

row,Structure (SMILES),% of control remaining
1,CCOc1ccc(S(=O)(=O)N2CCCN(CCCC#N)CC2)c2cccnc12 [CBK062935],91.3711
2,Cc1cc(NC(=O)C(C)N(C)CCOc2ccccc2Cl)no1 (stereo not drawn) [CBK304466],64.2174
3,COc1cccc(CN2CCN(C(=O)C3(C)CC3(Cl)Cl)CC2)c1 (stereo not drawn) [CBK268121],63.2695
4,CSc1ccccc1NC(=O)c1cccn(Cc2ccc(C)cc2)c1=O [CBK294426],103.47
5,O=C(CSC1=NC(=O)C(Cc2ccccc2)C(=O)N1)Nc1ncccn1 (stereo not drawn) [CBK263906],73.8269
6,COc1ccc(I)cc1S(=O)(=O)NCc1ccccn1 [CBK264019],82.4604
7,c1ccc(-c2nc3ccc(Oc4ccc5nc(-c6ccccn6)c(-c6ccccn6)nc5c4)cc3nc2-c2ccccn2)nc1 [CBK261964],93.8023
8,CCn1cncc1CN1CCCC(c2cc3cccnc3[nH]2)C1 (stereo not drawn) [CBK284993],103.844
9,CN(C)CCCC(O)(c1ccccc1)c1ccccc1 [CBK012599],67.5219
10,CC(NC(=O)N(CCCN)Cc1c[nH]c(-c2ccccc2)n1)c1cccc2ccccc12 (stereo not drawn) [CBK034672C],71.5124
11,CCC(C)(C)c1ccc(S(=O)(=O)N(C)CCC#N)cc1 [CBK043395],106.454
12,O=C(NCCN1CCOCC1)c1ccc(Nc2cncc(-c3ccc(O)cc3)n2)cc1 [CBK115692],92.499
13,COc1ncnc(C)c1-c1cc(C)c(OC)c(C)c1 [CBK306852],112.424
14,COc1cc(C2=NS(=O)(=O)NC3=C2CCCC3)cc(OC)c1OC [CBK010423],58.1338
15,Cc1ccc(S(=O)(=O)Nc2cccc(NC(=O)c3ccco3)c2)cc1C(=O)O [CBK296638],110.888
16,FC(F)Oc1ccc(-c2ccnc(S)n2)cc1 [CBK288385],57.0396
17,Cc1nc(C2CC(=O)N(Cc3ccccn3)C2)n(-c2ccccc2F)n1 (stereo not drawn) [CBK306895],90.1575
18,O=C(Nc1nc2c(s1)CCCCC2)C1CCN(S(=O)(=O)c2ccc(F)cc2)C1 (stereo not drawn) [CBK285708],94.6352
19,CC(=O)c1ccccc1NC(=O)c1cc2ccc(F)cc2nc1C [CBK297929],65.3756
20,O=[N+]([O-])c1ccc(CN2CCC(Oc3nccnc3OCc3cccnc3)CC2)cc1 [CBK083162T],69.6253
21,Cc1ccccc1-c1cc(C(=O)NCCCn2cc(Br)cn2)c2ccccc2n1 [CBK267758],84.8085
22,Cn1cc(C(=O)Nc2c(F)cc(F)cc2OC2CCNCC2)c2ccccc21 [CBK050328T],80.1574
23,Oc1ccc(-n2ncc(-c3cccc(C(F)(F)F)c3)n2)cc1 [CBK112677],57.8956
24,CC1(C)CCCC2=C1CC(C(=O)O)C(C(=O)O)C2 (stereo not drawn) [CBK272329],105.472
25,COc1ccc2c(C)c(CCC(=O)N(C)CC(=O)O)c(=O)oc2c1 [CBK286731],41.273
26,CC(C)(C)CNc1ccc(S(=O)(=O)N2CCOC2=O)cc1 [CBK028347],86.4532
